Reference: the antibiotic and cytotoxicity screens of Wong et al. (2023)
The list shows a part of the results.

Legend:
HSkMC = human skeletal muscle cells; assay: cytotoxicity call (relative viability < 0.9); details: 10 µM
S. aureus RN4220 = assay: growth inhibition call (relative growth <= 0.2); details: 50 µM

Question: With `Cc1ccc(S(=O)(=O)N(C)C[C@@H]2OCCCC[C@@H](C)Oc3ccc(NC(=O)C4CCCCC4)cc3C(=O)N([C@H](C)CO)C[C@@H]2C)cc1` as the molecule, how does the cytotoxicity call (HSkMC) read?
Answer: inactive

Question: What about the growth inhibition call (S. aureus RN4220) of the same molecule?
Answer: inactive

Question: How did the cytotoxicity call (HSkMC) turn out when `COc1cccnc1N` was run?
Answer: inactive

Question: And the growth inhibition call (S. aureus RN4220)?
Answer: inactive

Question: `C=CCCC(=O)N(C)[C@H](C)[C@@H](OC(=O)[C@@H]1[C@@H]2C=C[C@]3(O2)[C@H](CN(CC=C)Cc2ccccc2)N(C(C)(C)C)C(=O)[C@@H]13)c1ccccc1` was tested. Which cytotoxicity call (HSkMC) did it give?
Answer: inactive

Question: What about the growth inhibition call (S. aureus RN4220) of the same molecule?
Answer: inactive

Question: What does the source list for `C[C@H](CO)N1C[C@H](C)[C@@H](CN(C)Cc2ccc(-c3ccccc3)cc2)Oc2ccc(NC(=O)Nc3cccc4ccccc34)cc2CC1=O`?
Answer: cytotoxicity call (HSkMC): inactive; growth inhibition call (S. aureus RN4220): inactive

Question: Which results are given for `COc1cccc(-c2ccc3c(c2)O[C@@H](CN(C)Cc2cncnc2)[C@@H](C)CN([C@@H](C)CO)S3(=O)=O)c1`?
Answer: cytotoxicity call (HSkMC): inactive; growth inhibition call (S. aureus RN4220): inactive

Question: How did the cytotoxicity call (HSkMC) turn out when `COC(=O)[C@H]1C[C@@]2(C(=O)O)C[C@](C(=O)O)(C[C@@H](C(=O)OC)C2=O)C1=O` was run?
Answer: inactive

Question: And the growth inhibition call (S. aureus RN4220)?
Answer: inactive

Question: What does the source list for `C[C@H]1CN([C@@H](C)CO)S(=O)(=O)c2ccc(-c3ccncc3)cc2O[C@@H]1CN(C)Cc1ccc(Oc2ccccc2)cc1`?
Answer: cytotoxicity call (HSkMC): inactive; growth inhibition call (S. aureus RN4220): inactive

Question: Which cytotoxicity call (HSkMC) does the source give for `C[C@@H]1CN([C@@H](C)CO)S(=O)(=O)c2ccc(Br)cc2O[C@H]1CN(C)C(=O)Nc1ccc2c(c1)OCO2` here?
Answer: inactive

Question: What about the growth inhibition call (S. aureus RN4220) of the same molecule?
Answer: inactive

Question: What does the source list for `O=C(C[C@@H]1C=C[C@@H](NS(=O)(=O)c2ccccc2)[C@@H](CO)O1)NCc1ccncn1`?
Answer: cytotoxicity call (HSkMC): inactive; growth inhibition call (S. aureus RN4220): inactive

Question: Which cytotoxicity call (HSkMC) does the source give for `CC(C)NC(=O)Nc1ccc2c(c1)C(=O)N([C@@H](C)CO)C[C@H](C)[C@@H](CN(C)S(=O)(=O)c1ccc(F)cc1)O2` here?
Answer: inactive

Question: And the growth inhibition call (S. aureus RN4220)?
Answer: inactive

Question: Which results are given for `COC(=O)c1c(C(=O)OC)c2n(c(=O)c1-c1ccccc1)[C@@H]1c3ccccc3O[C@@](CO)([C@@H]1CO)N2C`?
Answer: cytotoxicity call (HSkMC): inactive; growth inhibition call (S. aureus RN4220): inactive

Question: `CNC[C@H]1Oc2cc(C#CC(C)(C)O)ccc2S(=O)(=O)N([C@H](C)CO)C[C@H]1C` was tested. Which cytotoxicity call (HSkMC) did it give?
Answer: inactive

Question: And the growth inhibition call (S. aureus RN4220)?
Answer: inactive

Question: How did the cytotoxicity call (HSkMC) turn out when `C[C@@H]1CN([C@H](C)CO)C(=O)c2cc(C#CC3(O)CCCC3)cnc2O[C@H]1CN(C)C(=O)Cc1ccccc1` was run?
Answer: inactive

Question: What about the growth inhibition call (S. aureus RN4220) of the same molecule?
Answer: inactive

Question: For `COc1ccc(NC(=O)Nc2ccc3c(c2)CC(=O)N([C@@H](C)CO)C[C@H](C)[C@@H](CN(C)C(=O)Nc2cccc4ccccc24)O3)cc1`, which cytotoxicity call (HSkMC) is on record?
Answer: inactive

Question: And the growth inhibition call (S. aureus RN4220)?
Answer: inactive

Question: With `CCOC(=O)CC1(C)NNC(=S)NN1` as the molecule, how does the cytotoxicity call (HSkMC) read?
Answer: inactive

Question: What about the growth inhibition call (S. aureus RN4220) of the same molecule?
Answer: inactive

Question: What does the source list for `CNC[C@H]1OCCCC[C@H](C)Oc2ccc(NC(=O)c3ccncc3)cc2C(=O)N([C@H](C)CO)C[C@@H]1C`?
Answer: cytotoxicity call (HSkMC): inactive; growth inhibition call (S. aureus RN4220): inactive

Question: Which results are given for `NNC(=O)c1cccc(C(F)(F)F)n1`?
Answer: cytotoxicity call (HSkMC): inactive; growth inhibition call (S. aureus RN4220): inactive

Question: Which results are given for `Cc1noc(C)c1NC(=O)Nc1ccc2c(c1)CC(=O)N([C@@H](C)CO)C[C@H](C)[C@@H](CN(C)Cc1ccc(C(=O)Nc3ccccc3N)cc1)O2`?
Answer: cytotoxicity call (HSkMC): inactive; growth inhibition call (S. aureus RN4220): inactive

Question: How did the cytotoxicity call (HSkMC) turn out when `COC(=O)CCC(C)C1CCC2C3CCC4CC(O)CCC4(C)C3CC(O)C12C` (stereo not given) was run?
Answer: inactive

Question: And the growth inhibition call (S. aureus RN4220)?
Answer: inactive

Question: For `Cc1noc(C)c1S(=O)(=O)Nc1ccc2c(c1)C(=O)N([C@@H](C)CO)C[C@@H](C)[C@@H](CN(C)Cc1ccc(Oc3ccccc3)cc1)O2`, which cytotoxicity call (HSkMC) is on record?
Answer: inactive

Question: And the growth inhibition call (S. aureus RN4220)?
Answer: inactive

Question: For `Nc1nc(Cl)nc(Cl)n1`, which cytotoxicity call (HSkMC) is on record?
Answer: inactive

Question: What about the growth inhibition call (S. aureus RN4220) of the same molecule?
Answer: inactive

Question: For `C[C@H]1CCCCO[C@H](CN(C)S(=O)(=O)c2cn(C)cn2)[C@@H](C)CN([C@@H](C)CO)C(=O)c2cc(NS(C)(=O)=O)ccc2O1`, which cytotoxicity call (HSkMC) is on record?
Answer: inactive

Question: What about the growth inhibition call (S. aureus RN4220) of the same molecule?
Answer: inactive

Question: For `C[C@H]1CN([C@@H](C)CO)C(=O)c2cccc(NC(=O)Nc3cccc4ccccc34)c2O[C@H]1CN(C)Cc1ccc2c(c1)OCO2`, which cytotoxicity call (HSkMC) is on record?
Answer: inactive

Question: What about the growth inhibition call (S. aureus RN4220) of the same molecule?
Answer: inactive

Question: For `Nc1no[n+]([O-])c1-c1ccccc1`, which cytotoxicity call (HSkMC) is on record?
Answer: inactive

Question: And the growth inhibition call (S. aureus RN4220)?
Answer: inactive

Question: `O=C(O)c1c(Br)c(Br)c(Br)c(Br)c1-c1c2ccc(=O)cc-2oc2cc(O)ccc12` was tested. Which cytotoxicity call (HSkMC) did it give?
Answer: inactive

Question: And the growth inhibition call (S. aureus RN4220)?
Answer: active

Question: Which cytotoxicity call (HSkMC) does the source give for `C[C@H]1CN([C@@H](C)CO)C(=O)c2cccc(NC(=O)c3ccncc3)c2O[C@H]1CN(C)Cc1ccc(C(=O)O)cc1` here?
Answer: inactive

Question: And the growth inhibition call (S. aureus RN4220)?
Answer: inactive

Question: With `CC(C)NC(=O)N(C)C[C@@H]1Oc2ccc(NC(=O)Nc3ccc4c(c3)OCO4)cc2CC(=O)N([C@H](C)CO)C[C@H]1C` as the molecule, how does the cytotoxicity call (HSkMC) read?
Answer: inactive

Question: And the growth inhibition call (S. aureus RN4220)?
Answer: inactive

Question: With `C[C@@H]1CCCCO[C@H](CN(C)C(=O)Nc2cccc3ccccc23)[C@H](C)CN([C@@H](C)CO)C(=O)c2cc(NC(=O)c3ccncc3)ccc2O1` as the molecule, how does the cytotoxicity call (HSkMC) read?
Answer: inactive

Question: And the growth inhibition call (S. aureus RN4220)?
Answer: inactive

Question: What does the source list for `C[C@@H]1CN([C@H](C)CO)C(=O)c2cccc(NC(=O)c3cnccn3)c2O[C@@H]1CN(C)C(=O)NC1CCCCC1`?
Answer: cytotoxicity call (HSkMC): inactive; growth inhibition call (S. aureus RN4220): inactive

Question: With `CC1=CC2(CO)C(=O)[C@]3(CO3)C1[C@H]1[C@]2(C)C=C(CO)C(=O)[C@]12CO2` (stereo not given in full) as the molecule, how does the cytotoxicity call (HSkMC) read?
Answer: inactive

Question: And the growth inhibition call (S. aureus RN4220)?
Answer: inactive
